{
  "source": "PubChem BioAssay AID1347417",
  "about": "(National Center for Advancing Translational Sciences (NCATS), 2020)",
  "note": "In all, about 120,000 compounds went through this assay and about 5,300 (4.4%) were called active. The shares of active, inactive and inconclusive entries below differ from those in the screen. Calls follow the shape of the dose curve; as a rule, active = well fitted inhibition curve with a large enough effect; inconclusive = small, poorly fitted or top-dose-only effect; inactive = no such curve, though single readings can be large or run the other way. A potency beside an inconclusive call is a rough fit, not a confirmed value. Potency is read from the fitted curve at half-maximal effect; tags tell the direction and shape of the fitted curve.",
  "data": [
    {"test": "qHTS Primary assay for Inhibitors of Plasmodium falciparum Dd2 growth in vitro; also: nearly all actives have a fitted effect of over 65% in size;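 as to activity, negative = inhibition: plate controls were DMSO vehicle for no effect and reference drug for full effect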", "settings": "P. falciparum Dd2 growth, SYBR Green, 72 h; activity, negative = inhibition: at 28.9 µM (top of the series) unless noted; series mostly up to 28.9 µM", "method_in_brief": "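Readout: SYBR Green fluorescence, 485 nm excitation, 535 nm emission, after ~16 h lysis at 37C. Before that, Dd2-infected red cells (2.5% hematocrit) grew 72 h with compound, 29 uM top final concentration.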", "values": [
      {"smiles": "CCc1ccc(NC(=O)C2CCCN(S(=O)(=O)c3cccc4cccnc34)C2)cc1", "note": "(stereo not given)", "Potency": "active: 14.1 µM"},
      {"smiles": "Cc1nn2c(c1-c1cccc3cn[nH]c13)N(C(=O)c1cccc(Cl)c1)CCC2", "Potency": "inactive"},
      {"smiles": "C[S+](=O)([O-])N1CCN([S+](=O)([O-])c2ccc(Cl)nc2)C(=O)C1", "Potency": "inactive"},
      {"smiles": "Cc1nn2c(c1-c1ccccc1-c1ccccc1)N(CCC(C)C)CCC2", "Potency": "inconclusive: 0.316 µM [inhibitor, full curve, poor fit]"},
      {"smiles": "CCN(CC)c1ccc(C(=O)Nc2ccc3nc(N(CC)CC)cc(C)c3c2)cc1", "Potency": "inactive"},
      {"smiles": "Cc1cc(C)n(CCC(=O)N2[C@H]3CC[C@@H]2c2cnc(-c4ccc(F)cc4)nc2C3)n1", "Potency": "inconclusive: 3.16 µM [inhibitor, partial curve, poor fit]"},
      {"smiles": "CCCCc1ccc(NC(=O)CN2C(=O)C(c3ccccc3)=NC23CCCC3)cc1", "Potency": "inactive"},
      {"smiles": "COc1ccc(CNc2nc(-c3ccco3)nn2S(=O)(=O)c2ccc3ccccc3c2)cc1OC", "activity, negative = inhibition": "inconclusive: -47.5% [inhibitor] [at 5.79 µM]"},
      {"smiles": "Cc1ccc(S(=O)(=O)n2nc(-c3ccccc3)nc2NCc2ccccc2Cl)cc1", "Potency": "inconclusive: 12.6 µM [inhibitor, single point]"},
      {"smiles": "O=c1c(-c2cc(-c3ccc(F)cc3)nc3c2COc2ccc(Cl)cc2-3)coc2ccc(F)cc12", "Potency": "inconclusive: 8.91 µM [inhibitor, single point]"},
      {"smiles": "c1ccc(-n2nnnc2N2CCCC(c3nccn3Cc3ccccn3)C2)cc1", "note": "(stereo not given)", "Potency": "inactive"},
      {"smiles": "CC(C)c1ccc(NC(=O)CSC2=Nc3ccccc3C3=NC(CCC(=O)NCc4ccc(F)cc4)C(=O)N23)cc1", "note": "(stereo not given)", "Potency": "inactive"},
      {"smiles": "CCN1CCN(C(=O)c2ccc3c(c2)N(Cc2c(F)cccc2Cl)C(=O)c2ccccc2S3)CC1", "Potency": "inconclusive: 0.0178 µM [inhibitor, full curve, poor fit]"},
      {"smiles": "CC(C)N1C[C@H](O)C[C@H]1c1nnc2n1CCN(C(=O)c1ccccc1F)C2", "Potency": "inactive"},
      {"smiles": "COc1ccc(OCCn2cc(C(=O)c3ccco3)c3ccccc32)cc1", "Potency": "active: 1 µM"},
      {"smiles": "Cc1ccc(CN2CCN(c3ncnc4onc(C)c34)CC2CCO)cc1", "note": "(stereo not given)", "Potency": "inactive"},
      {"smiles": "CCOc1ccccc1CN1C(=O)c2ccccc2C1C(=O)NC1CCCCCC1", "note": "(stereo not given)", "Potency": "inconclusive: 11.2 µM [inhibitor, partial curve, poor fit]"},
      {"smiles": "O=C(Cc1ccc(F)cc1)N1CCN(C(=O)c2nnn3c2COC(c2ccccc2)C3)CC1", "note": "(stereo not given)", "Potency": "inconclusive: 3.98 µM [inhibitor, single point]"},
      {"smiles": "COC(=O)c1cc2occc2n1Cc1nc(-c2ccccc2C)oc1C", "Potency": "inactive"},
      {"smiles": "O=C1NCCN2CC3(CCN(C(=O)Nc4ccc5c(c4)OCCO5)CC3)CC12", "note": "(stereo not given)", "Potency": "inactive"},
      {"smiles": "CC(=O)Nc1ccc(NC(=O)CSc2cn(CC(=O)N(C(C)C)C(C)C)c3ccccc23)cc1", "Potency": "inconclusive: 11.2 µM [inhibitor, single point]"},
      {"smiles": "Cc1ccc(-c2noc(CN(C3CCCCC3)S(=O)(=O)c3ccc(F)cc3)n2)cc1", "Potency": "inconclusive: 8.91 µM [inhibitor, single point]"},
      {"smiles": "COCCN1C(=O)[C@@H]2C[C@@H](CN2Cc2cccnc2)Oc2ccccc21", "Potency": "inconclusive: 10 µM [inhibitor, partial curve]"},
      {"smiles": "Cc1c(Cl)cccc1NC(=O)CSc1nc(=O)[nH]c2c1CCCC2", "Potency": "inactive"},
      {"smiles": "CCNC(=O)N1C[C@@H](Oc2ccccc2)C[C@@H]1C(=O)N1CCOCC1", "Potency": "inactive"},
      {"smiles": "COc1ccc(C)cc1-c1cn(C)c(=O)n2cc(COc3ccccc3)nc12", "Potency": "inactive"},
      {"smiles": "Cc1ccsc1C(=O)N1CCC2(CC1)NC(=O)N(c1cccc(F)c1)N2", "Potency": "inactive"},
      {"smiles": "COc1cc(SC)ccc1C(=O)N[C@H]1CCN2C(=O)N(c3ccc(OC(F)(F)F)cc3)C(=O)[C@@H]2C1", "Potency": "inconclusive: 5.01 µM [inhibitor, partial curve, poor fit]"},
      {"smiles": "CC(C)CC(=O)N1CCCN(Cc2ccc3c(c2)OCO3)c2ccccc21", "Potency": "inconclusive: 17.8 µM [inhibitor, single point]"},
      {"smiles": "CCOC(=O)c1c(C)oc2nc(C)nc(NCC3CCN(Cc4ccccc4C)CC3)c12", "Potency": "inconclusive: 8.91 µM [inhibitor, single point]"},
      {"smiles": "COc1ccc(-c2cnc3[nH]cc(CC(=O)NCc4cccnc4)c3c2)cn1", "Potency": "inconclusive: 1.26 µM [inhibitor, full curve, poor fit]"},
      {"smiles": "COc1cccc(OCc2nc(C(=O)N3CC4C[C@@H]5CC3C[C@H](C4)C5)co2)c1", "Potency": "active: 10 µM"},
      {"smiles": "COc1cccc(-c2cn3c(n2)sc2cc(C(=O)NCc4ccccc4F)ccc23)c1", "Potency": "inconclusive: 20 µM [inhibitor, single point]"},
      {"smiles": "C=CCNC(=O)N1CCOC(CN(CC(C)C)C(=O)c2ccc(C)cc2)C1", "note": "(stereo not given)", "Potency": "inconclusive: 17.8 µM [inhibitor, single point]"},
      {"smiles": "O=C(CCCn1cnc2ccccc2c1=O)N1CCCC2(CCNCC2)CC1", "Potency": "inactive"},
      {"smiles": "Cc1ccc(-c2nnc(C3CN(C(=O)C4CCCCCC4)CC34CCOCC4)o2)cc1", "note": "(stereo not given)", "Potency": "inconclusive: 17.8 µM [inhibitor, single point]"},
      {"smiles": "CC(C)c1cc(C(=O)NC(C)c2ccccc2-n2cccn2)nc2ncnn12", "note": "(stereo not given)", "Potency": "inactive"},
      {"smiles": "O=C(NCCc1ccccc1)C1CC(=O)N(c2n[nH]c3ccccc23)C1", "note": "(stereo not given)", "Potency": "inconclusive: 3.98 µM [inhibitor, single point]"},
      {"smiles": "O=C1CN(C(=O)c2ccc(S(=O)(=O)N3CCCCC3)cc2)C(c2ccc(F)cc2)c2cc(Cl)ccc2N1", "note": "(stereo not given)", "Potency": "inconclusive: 17.8 µM [inhibitor, single point]"},
      {"smiles": "COc1ccc(C(=O)N2CCC(c3noc(-c4cnccn4)n3)C2)cn1", "note": "(stereo not given)", "outcome": "inactive [at 5.79 µM]"},
      {"smiles": "COCCc1nn2c(=O)cc(COC(=O)c3ccco3)nc2s1", "Potency": "inactive"},
      {"smiles": "O=C(Nc1cccc(Cl)c1)C1=NO[C@@H]2CN(CCc3ccccc3)C[C@H]12", "Potency": "inactive"},
      {"smiles": "COc1ccc(-c2nc(C3CC3)nc3c2CCN(CCC(C)C)CC3)cc1", "Potency": "inconclusive: 17.8 µM [inhibitor, single point]"},
      {"smiles": "CC(C)OC(=O)N1CCC(COc2ccc3c(cnn3CCC(=O)O)c2)CC1", "Potency": "inconclusive: 31.6 µM [inhibitor, single point]"},
      {"smiles": "COc1ccc2[nH]c3c(c2c1)CCNC31CCN(C(=O)c2cnccc2C)CC1", "Potency": "inconclusive: 7.94 µM [inhibitor, partial curve, poor fit]"},
      {"smiles": "CC(C)N1CCc2c(sc(NC(=O)c3ccc(S(=O)(=O)N(C)C4CCCCC4)cc3)c2C(N)=O)C1", "Potency": "inconclusive: 14.1 µM [inhibitor, single point]"},
      {"smiles": "CS(=O)(=O)N1CCCC(C(=O)NCCCN2CCCc3ccccc32)CCNC(=O)CC1", "note": "(stereo not given)", "Potency": "inactive"},
      {"smiles": "CCN1CCCC12Cc1ccccc1CN([S+](=O)([O-])c1ccccc1)C2", "note": "(stereo not given)", "Potency": "inconclusive: 6.31 µM [inhibitor, partial curve, poor fit]"},
      {"smiles": "COCCNC(=O)[C@@H]1C[C@H](Oc2ccccc2)CN1C(=O)c1ccncc1", "Potency": "inactive"},
      {"smiles": "COc1ccc(NC(=O)N2CC(C(=O)N(C)C)C3(CCOCC3)C2)c(C)c1", "note": "(stereo not given)", "Potency": "inactive"},
      {"smiles": "CN(CCCNC(=O)Cn1ncc2c([nH]c3ccccc32)c1=O)Cc1ccccc1", "Potency": "inconclusive: 11.2 µM [inhibitor, partial curve, poor fit]"},
      {"smiles": "OC[C@@H]1CN(Cc2cccc(F)c2)C[C@H]1c1nc(-c2ccncc2)no1", "Potency": "inconclusive: 10 µM [inhibitor, single point]"},
      {"smiles": "COc1ccccc1CN1CCNc2cnc(Nc3ccccc3)cc2C1", "Potency": "inconclusive: 5.62 µM [inhibitor, single point]"},
      {"smiles": "COc1ccccc1CNC(=O)C1CCN(C2=NS(=O)(=O)C(c3ccc(C)c(C)c3)=C2C)CC1", "Potency": "inconclusive: 17.8 µM [inhibitor, single point]"},
      {"smiles": "COc1ccc(N2CC(C(=O)NCC3CC3)NC2=O)cc1", "note": "(stereo not given)", "Potency": "inactive"},
      {"smiles": "CN(Cc1ccc(F)cc1)Cc1ccc(OC(F)(F)F)cc1", "Potency": "inactive"},
      {"smiles": "CCN1CCN(C(=O)c2ccc3c(c2)N(Cc2ccccc2)C(=O)c2ccccc2S3(=O)=O)CC1", "Potency": "inconclusive: 1 µM [inhibitor, single point]"},
      {"smiles": "COc1ccc(F)cc1S(=O)(=O)N1CCC(n2cnnc2C)CC1", "Potency": "inconclusive: 11.2 µM [inhibitor, single point]"},
      {"smiles": "CCCN1CCN(CCCNC(=O)c2ccc3c(c2)sc2nc(-c4ccc(OCC)cc4)cn23)CC1", "Potency": "active: 1.26 µM"},
      {"smiles": "CCCC(=O)NCCc1noc(-c2ccccc2)n1", "Potency": "inconclusive: 0.0794 µM [inhibitor, full curve, poor fit]"},
      {"smiles": "CC(C)(C)c1ccc(C(=O)Nc2ccc(OCc3cc(=O)n4ccsc4n3)cc2)cc1", "Potency": "inconclusive: 6.31 µM [inhibitor, partial curve, poor fit]"},
      {"smiles": "Cn1nc(C2CCN(C(=O)c3ccccc3F)CC2)[nH]c1=O", "Potency": "inactive"},
      {"smiles": "COc1cccc(S(=O)(=O)N2CCC3(CC2)CC(CC(=O)NC2CC2)CCO3)c1", "note": "(stereo not given)", "Potency": "inactive"},
      {"smiles": "Cc1cccc(O[C@H]2COCCN(C(=O)c3cc(C)nn3C)C2)n1", "Potency": "inactive"},
      {"smiles": "CN(CC1(C)CCOCC1)C(=O)c1ccc(C#N)cc1", "Potency": "inactive"},
      {"smiles": "Cc1nonc1OCCNC(=O)C1CC(=O)N(Cc2ccccn2)C1", "note": "(stereo not given)", "Potency": "inactive"},
      {"smiles": "CC(C)CCN(C1CCOCC1)C1CCN(Cc2ccc[nH]2)CC1", "Potency": "active: 3.16 µM"},
      {"smiles": "CCCNC(=O)OC[C@H]1C[C@@H]2CCN1C[C@@H]2c1cc(-c2ccccc2OC)nc(C)n1", "Potency": "inconclusive: 3.98 µM [inhibitor, single point]"},
      {"smiles": "Cc1ccc(C(=O)NCc2nnc3cc(-c4nc(C5CC5)no4)ccn23)cc1F", "Potency": "inconclusive: 8.91 µM [inhibitor, partial curve, poor fit]"},
      {"smiles": "COc1cccc(C(=O)Nc2ccc3nc4n(c(=O)c3c2)CCCCC4)c1", "Potency": "inconclusive: 12.6 µM [inhibitor, partial curve, poor fit]"}
    ]}
  ]
}
